Among all 310,000 compounds or so, about 2,200 (0.71%) showed an effect of 50% or more. The effect is printed as a negative number. The list shows a part of the results.
Target: human ether-à-go-go-related gene (hERG) potassium channel (human, UniProt Q12809)
Assay: primary screen, population patch clamp on CHO cells stably expressing hERG

human ether-à-go-go-related gene (hERG) potassium channel, sequence (Q12809 whole entry, looked up): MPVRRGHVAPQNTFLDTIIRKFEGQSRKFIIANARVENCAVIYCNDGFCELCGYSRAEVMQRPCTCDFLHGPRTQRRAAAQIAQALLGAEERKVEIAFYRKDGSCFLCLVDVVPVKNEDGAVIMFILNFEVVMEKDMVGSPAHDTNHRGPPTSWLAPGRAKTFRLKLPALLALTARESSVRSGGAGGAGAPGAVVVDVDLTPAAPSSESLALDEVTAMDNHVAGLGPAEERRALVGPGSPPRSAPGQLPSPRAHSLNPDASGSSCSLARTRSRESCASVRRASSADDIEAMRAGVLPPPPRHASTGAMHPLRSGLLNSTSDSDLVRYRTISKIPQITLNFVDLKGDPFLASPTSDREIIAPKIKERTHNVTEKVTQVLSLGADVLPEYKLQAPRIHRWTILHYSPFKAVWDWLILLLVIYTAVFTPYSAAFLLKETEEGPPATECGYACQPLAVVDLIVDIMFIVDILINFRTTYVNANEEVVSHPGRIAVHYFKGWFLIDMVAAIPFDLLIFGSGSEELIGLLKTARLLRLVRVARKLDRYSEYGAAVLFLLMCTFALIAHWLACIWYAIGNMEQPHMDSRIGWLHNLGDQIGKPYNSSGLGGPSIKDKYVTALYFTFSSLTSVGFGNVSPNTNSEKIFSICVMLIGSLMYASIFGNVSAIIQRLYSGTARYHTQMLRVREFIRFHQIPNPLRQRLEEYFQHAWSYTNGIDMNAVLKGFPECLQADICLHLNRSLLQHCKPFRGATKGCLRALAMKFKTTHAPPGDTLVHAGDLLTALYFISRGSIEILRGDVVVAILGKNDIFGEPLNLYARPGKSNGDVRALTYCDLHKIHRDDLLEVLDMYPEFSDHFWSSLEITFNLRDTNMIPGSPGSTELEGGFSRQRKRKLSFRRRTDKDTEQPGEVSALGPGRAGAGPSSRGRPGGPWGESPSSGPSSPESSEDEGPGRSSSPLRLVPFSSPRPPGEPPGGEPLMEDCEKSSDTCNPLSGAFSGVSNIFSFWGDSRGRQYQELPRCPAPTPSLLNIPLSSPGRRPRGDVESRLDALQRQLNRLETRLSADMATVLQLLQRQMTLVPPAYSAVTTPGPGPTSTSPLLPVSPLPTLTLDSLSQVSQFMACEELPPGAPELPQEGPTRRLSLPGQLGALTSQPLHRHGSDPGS

SMILES	hERG current change (%, negative = inhibition) at 1uM
Oc1c(Br)cc(Br)cc1/C=N/Nc1ccc(Cl)nn1	16.7%
Cc1cc(C)n2c(SCC(=O)N(CC(C)C)c3c(N)n(CC(C)C)c(=O)[nH]c3=O)nnc2n1	9.86%
CCN(C(=O)CSc1nc(-c2cccs2)nc2ccccc12)C1CCS(=O)(=O)C1 (centres unmarked)	-78.4%
CCOC(=O)c1c(NC(=O)c2c(-c3ccccc3)noc2C)sc(C)c1-c1ccccc1	-13%
COc1ccc(N2CS(=O)CC2=O)cc1 (centres unmarked)	-1.75%
Cc1ccc(-c2noc(CSc3nnc(-c4cccs4)n3C)n2)cc1	15.7%
CCOc1ccccc1C1CC(c2ccc(F)cc2)Nc2nc(N)nn21 (centres unmarked)	-12.1%
CCOC(=O)c1c(NC(=O)CSc2nc3ccccc3s2)sc(C)c1C	12.3%
O=C(NC(=S)Nc1ccc(F)c(Cl)c1)C1CC1	0.933%
O=C(NC(c1ccccc1)c1ccccc1)c1ccc(Br)o1	8.44%
CCCCN1CCC(COC(=O)c2cc(Cl)c(N)c3c2OCCO3)CC1.Cl	-23.9%
CCn1c(SCC(=O)c2ccccc2)nc2c(c1=O)SC(C)C2 (centres unmarked)	-1.19%
COc1ccc(C2Nc3ccccc3NC3=C2C(=O)CC(C)(C)C3)cc1O (centres unmarked)	9.77%
Cc1cc(=O)c(C(=O)O)nn1-c1ccccc1[N+](=O)[O-]	6.6%
O=c1cc(-c2ccccc2)c2ccc(O)c(CN3CCCCC3)c2o1	7.06%
Cc1ccc(S(=O)(=O)Oc2ccc(/C=N/NC(=O)c3cccnc3)cc2)cc1	3.45%
CCN(CC)CCNc1ccnc2cc(Cl)ccc12	5.14%
Cc1ccc(Cl)cc1NC(=O)COC(=O)CC1CC2CCC1C2 (centres unmarked)	9.36%
CC(/C=C1\NC(=S)NC1=O)=C\c1ccccc1	12%
COc1cc(C(=O)NCCNC(=O)c2ccc(C)nc2)cc(OC)c1OC	12%
COc1ccc(/C=C/C(=O)N2CCN(C)CC2)cc1OC	16%
CN(CCc1ccccn1)C(=S)Nc1ccc(Cl)c(Cl)c1	13.2%
CC1CN(C(=O)Nc2ccc(F)cc2)C2(CCCCCC2)O1 (centres unmarked)	6.65%
Cc1cc(C(=O)Nc2cccnc2)on1	8.81%
COc1ccc(N2C(=O)c3cccc4c(N(C)CCO)ccc(c34)C2=O)cc1	9.82%
Cc1ccc(CNC(=O)c2oc3ccc(S(=O)(=O)N4CCC5(CC4)OCCO5)cc3c2C)cc1	8.87%
